# Screen size: about 310,000 compounds; about 14,000 (4.5%) showed an effect of 50% or more. Effects have a minus sign here. The list shows a part of the results.
# Molecular target: human ether-à-go-go-related gene (hERG) potassium channel (human, UniProt Q12809)
# Assay: primary screen, population patch clamp on CHO cells stably expressing hERG
# 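Further: peak tail current of the secondary pulse compared with the same well before compound.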
# human ether-à-go-go-related gene (hERG) potassium channel, sequence (Q12809 whole entry, looked up): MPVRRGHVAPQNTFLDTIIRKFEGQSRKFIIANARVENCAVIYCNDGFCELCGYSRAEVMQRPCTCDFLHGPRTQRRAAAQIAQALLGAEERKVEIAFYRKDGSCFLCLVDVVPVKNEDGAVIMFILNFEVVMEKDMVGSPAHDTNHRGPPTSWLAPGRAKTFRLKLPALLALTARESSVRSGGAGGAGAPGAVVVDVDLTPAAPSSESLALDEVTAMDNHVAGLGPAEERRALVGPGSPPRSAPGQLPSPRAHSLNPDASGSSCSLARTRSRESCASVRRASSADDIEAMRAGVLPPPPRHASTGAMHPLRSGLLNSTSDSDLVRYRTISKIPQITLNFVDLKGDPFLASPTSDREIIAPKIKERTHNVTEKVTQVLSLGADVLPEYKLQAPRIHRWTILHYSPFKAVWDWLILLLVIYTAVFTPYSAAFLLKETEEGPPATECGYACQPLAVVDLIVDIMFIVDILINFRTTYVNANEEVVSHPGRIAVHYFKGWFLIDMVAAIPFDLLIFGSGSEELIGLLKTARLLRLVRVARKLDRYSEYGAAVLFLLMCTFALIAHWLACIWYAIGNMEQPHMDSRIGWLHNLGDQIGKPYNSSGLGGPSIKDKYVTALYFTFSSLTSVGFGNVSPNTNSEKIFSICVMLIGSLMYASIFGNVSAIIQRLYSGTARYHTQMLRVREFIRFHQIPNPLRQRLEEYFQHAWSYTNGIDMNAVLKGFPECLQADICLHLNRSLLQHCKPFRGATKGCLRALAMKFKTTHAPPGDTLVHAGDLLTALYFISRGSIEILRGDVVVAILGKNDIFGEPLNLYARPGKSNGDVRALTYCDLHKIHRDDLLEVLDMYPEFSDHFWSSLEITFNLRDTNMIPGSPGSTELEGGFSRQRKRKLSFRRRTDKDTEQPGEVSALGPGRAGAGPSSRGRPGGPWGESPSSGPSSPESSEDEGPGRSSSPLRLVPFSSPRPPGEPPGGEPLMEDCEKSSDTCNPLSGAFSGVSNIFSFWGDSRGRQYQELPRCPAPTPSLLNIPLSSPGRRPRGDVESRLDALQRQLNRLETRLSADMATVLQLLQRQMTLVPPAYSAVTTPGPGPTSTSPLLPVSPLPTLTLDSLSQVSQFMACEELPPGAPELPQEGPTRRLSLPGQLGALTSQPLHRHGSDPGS
row,Structure (SMILES),"hERG current change (%, negative = inhibition) at 10uM [%]"
1,COCCn1c(SCC(=O)N2CCCc3ccccc32)nnc1-c1ccoc1C,-7.38
2,Cc1nc(NC(=S)NC(=O)c2ccccc2)sc1C(=O)N(C)C,-1.09
3,Cc1nnc(SCc2ccccc2)n1CC1CCCO1 (centres unmarked),11.9
4,Cl.NC(c1ccccc1)c1cccnc1 (centres unmarked),18.1
5,O=C(CN1C(=O)c2ccccc2C1=O)N(CCO)Cc1ccccc1,8.29
6,O=S(=O)(c1ccc(Cl)s1)N1CCCCC1,-5.21
7,CCC(c1nnnn1CCc1ccccc1)N1CCN(C(=O)c2ccco2)CC1.Cl (centres unmarked),-28
8,Cn1c(SCC(=O)N2CCCC2)nc2cccnc21,16.9
9,COc1ccccc1NC(=O)N1CCC(NC(=O)C(Cc2ccccc2F)NC(C)=O)CC1 (centres unmarked),8.48
10,Cc1ccc(-c2sc(-c3ccccc3)nc2CC(=O)Nc2ccccc2F)cc1,6.09
11,CN1CCC(CNC(=O)Nc2ccccc2)(c2ccccc2)CC1,-8.58
12,CCCCOn1c(C)c(C(=O)OCC)c2c3no[n+]([O-])c3ccc21,11.7
13,COc1cccc(OCCNc2cc(N3CCOCC3)ccc2[N+](=O)[O-])c1,4.18
14,COc1cccc2cc(-c3nnc(SCC(=O)NCc4ccccc4)n3C)oc12,9.04
15,CCn1c(N)nc2ccccc21,5.9
16,NS(=O)(=O)c1ccc(CCNc2cc(=O)n(Cc3ccc(F)cc3)c(=O)[nH]2)cc1,-0.0138
17,O=C(CSc1nc(-c2ccccc2)c(-c2ccccc2)o1)N1CCOCC1,-49.8
18,Cc1cc(C)n(Cc2ccc(C(=O)N/N=C/c3ccc(-c4ccc([N+](=O)[O-])cc4)o3)o2)n1,-2.21
19,CC(C)NCC(O)COC1CCC(C(C)(C)C)CC1.Cl (centres unmarked),8.06

row,Structure (SMILES),"hERG current change (%, negative = inhibition) at 10uM [%]"
1,O=C(COC(=O)c1ccc2c(c1)OCO2)Nc1ccccc1,14.4
2,Cc1ncc(CO)c2cc(-c3nnc(Nc4ccc5c(c4)OCO5)s3)c(=O)oc12,1.63
3,Cc1ncsc1C(=O)N1CCCC(CNS(=O)(=O)c2cccs2)C1 (centres unmarked),24.5
4,COc1ccccc1CC(=O)NCc1csc(-c2cccs2)n1,-7.19
5,CCN1CCCC1CNC(=O)c1ccc2c(c1)NC(=O)/C(=C\c1ccc(C)cc1)S2 (centres unmarked),-42.4
6,N#Cc1ccccc1S(=O)(=O)N1CCN(CC(=O)NCC2(N3CCOCC3)CCCCC2)CC1,-27.3
7,CC1CCc2sc(C(=O)Nc3ccc(C(N)=O)cc3)cc2C1 (centres unmarked),10.5
8,Cc1onc(-c2c(Cl)cccc2Cl)c1C(=O)Nc1ccc(Cl)cn1,-10.2
9,O=[N+]([O-])c1cccc(NC(=S)NCCc2ccccc2)c1,-40.3
10,Cc1ccc(C(=O)N(CN2CCCC2=O)c2ccc(F)cc2)cc1,0.181
11,O=C(N/N=C/c1ccccc1O)C(=O)Nc1ccccn1,19.8
12,CCc1cc(=O)oc2cc(C)cc(OCC(=O)NCCCN3CCOCC3)c12,-11.1
13,Cc1cc(SCC(=O)c2ccc(O)c(O)c2)nc2ccccc12,18.2
14,c1ccc2sc(-c3ccc4c(c3)OCO4)nc2c1,-3.16
15,O=C(COc1ccc2c(-c3ccccc3)cc(=O)oc2c1)NCCN1CCOCC1,-14
16,O=C(CC(=O)c1ccccc1)Nc1ccccc1,6.57
17,CC1(OC(=O)C2CCCC2)C(=O)C=C2C=C(c3ccsc3)N(Cc3ccc4c(c3)OCO4)C=C2C1=O (centres unmarked),-79.6
18,Cc1c(C(c2ccc(O)cc2)c2c(C)n(C)n(-c3ccccc3)c2=O)c(=O)n(-c2ccccc2)n1C,-7.93
19,CCOC(=O)N1CCc2c(sc(NC(=O)CN3CCOCC3)c2C#N)C1,-1.09

row,Structure (SMILES),"hERG current change (%, negative = inhibition) at 10uM [%]"
1,CC(C)(C)NC(=O)c1ccc(Sc2ccccc2)c([N+](=O)[O-])c1,-10.2
2,O=C(Cc1ccc(-n2cccc2)cc1)NCc1ccccc1Cl,8.35
3,O=C(Cn1cnc2c(nnn2Cc2ccc(F)cc2)c1=O)N1CCCc2ccccc21,0.368
4,Cc1ccc(C)c(OCc2ccc(C(=O)Nc3ccc([N+](=O)[O-])cn3)o2)c1,16.3
5,O=C(CCNS(=O)(=O)c1cccc2nsnc12)NCc1ccccc1Cl,-2.94
6,CN1CCN(C(=O)C2=C[C@H](c3csc4ccccc34)C[C@H](OCCCCO)O2)CC1,-12.7
7,Cc1cccc(C(=O)NC(=S)NCc2cccnc2)c1,-0.89
8,CCN1CCN(c2nc(Nc3ccc(C)c(C)c3)nc(N)c2[N+](=O)[O-])CC1,-75
9,Cc1cccc(C)c1NC(=O)CCCSc1nnc(-c2ccc(Cl)cc2)n1-c1ccccc1,-3.49
10,CC(C)CCn1cnc2c(cnn2-c2ccc(F)cc2)c1=O,-3.95
11,COc1cccc(-c2nnc3sc(-c4ccc(C)cc4)nn23)c1,-10.2
12,Cc1cc(NC(=O)c2cccc(S(=O)(=O)N3CCCCCC3)c2)n(-c2ccccn2)n1,13.4
13,Cc1nn(-c2ccccc2)c(C)c1C(=O)NCc1ccc(F)cc1,-53.2
14,CCn1cc(C(=O)NCC(=O)NC(C)(C)CO)c(=O)c2cc3c(cc21)OCO3,11.9
15,CCCCNC(=S)N=Nc1c(O)[nH]c2ccccc12,4.13
16,Cl.c1ccc(CN2CCOCC2)cc1,22
17,O=C(Nc1ccccc1N1CCOCC1)C1=NN(c2c(F)c(F)cc(F)c2F)C(=O)CC1,15.5
18,O=C(CNc1ccc2ccccc2c1)N/N=C/c1ccc(OC(=O)/C=C/c2ccco2)cc1,22.7

# Reference: publication PMC4336329 (PLoS ONE, 2015)
